Data as given in PubChem BioAssay AID1768 (National Center for Advancing Translational Sciences (NCATS), 2009).
The whole screen tested about 270,000 compounds, of which about 620 (0.23%) were called active. Inconclusive results, whose numbers are uncertain, are shown with a selection of clear calls. The call rests on the fitted dose curve; in most records, active means well fitted inhibition curve with a large enough effect in the polarisation, with a control signal flat (not every such curve was filed as active); inconclusive means small, poorly fitted or top-dose-only effect, or effect the other way, or a change in a side signal; inactive means no such curve, though single readings can be large or run the other way; the % refers to the polarisation. A potency beside an inconclusive call is a rough fit, not a confirmed value. “Side channel” marks fits to a control or component signal instead of the main read-out.

Biological target: Menin (Homo sapiens) (UniProt O00255)
Assay: qHTS Assay for Inhibitors Targeting the Menin-MLL Interaction in MLL Related Leukemias: Competition With Texas Red Labeled MLL-derived Mutant Peptide; on FP activity change, negative = inhibition: % of control where 0% means no effect
Settings: fluorescence polarization; FP activity change, negative = inhibition: at 61.6 µM (top of the series)
Potency means the concentration at half of the fitted maximal effect; tags describe the fitted curve by direction and shape or compound fluorescence and quenching.

Sequence of UniProt O00255 (O00255 whole entry, looked up): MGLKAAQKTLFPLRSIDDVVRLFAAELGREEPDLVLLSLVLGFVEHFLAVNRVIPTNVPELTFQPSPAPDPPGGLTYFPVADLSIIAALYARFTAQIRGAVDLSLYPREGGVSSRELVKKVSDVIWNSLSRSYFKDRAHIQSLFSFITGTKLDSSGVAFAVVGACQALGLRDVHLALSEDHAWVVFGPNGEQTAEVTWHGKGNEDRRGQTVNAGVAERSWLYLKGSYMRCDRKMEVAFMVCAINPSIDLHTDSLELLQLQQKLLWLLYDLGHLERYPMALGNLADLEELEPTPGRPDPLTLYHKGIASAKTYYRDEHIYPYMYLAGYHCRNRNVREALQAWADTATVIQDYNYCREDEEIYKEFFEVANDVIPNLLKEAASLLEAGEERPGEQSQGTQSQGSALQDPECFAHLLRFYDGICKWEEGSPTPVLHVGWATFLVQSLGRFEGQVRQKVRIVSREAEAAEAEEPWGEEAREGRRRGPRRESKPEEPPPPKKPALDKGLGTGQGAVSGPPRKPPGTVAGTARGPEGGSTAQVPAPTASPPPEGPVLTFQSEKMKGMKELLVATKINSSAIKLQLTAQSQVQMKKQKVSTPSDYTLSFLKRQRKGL

| SMILES | FP activity change, negative = inhibition | Potency |
| --- | --- | --- |
| COc1ccc(N2CCN(C(=O)c3cccnc3)CC2)c([N+](=O)[O-])c1 | inactive: -21.6% | – |
| CN(Cc1ccccc1)C(=S)NC(=O)C1CCCCC1 | – | inconclusive: 4.47 µM [inhibitor, full curve, poor fit] |
| CCOc1ccc(NCc2nnc(SCC(=O)Nc3nc(-c4ccccc4)cs3)n2-c2ccccc2)cc1 | – | inconclusive: 28.2 µM [quencher, side channel, single point] |
| O=C(Nc1cccc2ccccc12)c1ccc([N+](=O)[O-])s1 | – | inconclusive: 22.4 µM [quencher, side channel, partial curve] |
| Cc1c(C(=O)Nc2nc3ccccc3[nH]2)oc2ccccc12 | inactive: 38.2% | – |
| COC(=O)c1c(C(=O)OC)c(-c2ccc(F)cc2)n2c1CSC2 | – | inconclusive: 17.8 µM [fluorescent, side channel, partial curve] |
| COc1ccc(-c2nc(CN3CCCCC3c3nccn3C)c(C)o2)c(C)c1C (stereo unspecified) | – | inconclusive: 7.94 µM [fluorescent, side channel, partial curve] |
| Cc1ccc(C)c(N(C(=O)c2ccco2)C(C(=O)NC2CCCC2)c2ccco2)c1 (stereo unspecified) | – | inconclusive: 20 µM [inhibitor, single point] |
| C=CCc1cccc2cc(C(=O)Nc3ccc(S(=O)(=O)Nc4nnc(CC)s4)cc3)c(=O)oc12 | – | inconclusive: 7.08 µM [quencher, side channel, partial curve] |
| O=c1cc(N2CCN(c3ccccc3F)CC2)[nH]c(=O)n1-c1ccc(Br)cc1 | – | inconclusive: 39.8 µM [inhibitor, single point] |
| COc1ccc2[nH]c(=O)c(CN(CCc3ccccc3)C(C)=O)cc2c1 | inactive: -7.9% | – |
| Cc1ccc(-c2nc(CS(=O)(=O)CC(=O)NC3CCCCCC3)c(C)o2)cc1 | – | inconclusive: 2 µM [inhibitor, partial curve] |
| COc1ccc(OC)c(-c2c3cc(O)c(=O)cc-3oc3cc(O)c(O)cc23)c1 | – | inconclusive: 39.8 µM [fluorescent, side channel, single point] |
| Cc1ccc(NC(=O)c2ccc(N3CCOCC3)c([N+](=O)[O-])c2)cc1S(=O)(=O)N1CCOCC1 | – | inconclusive: 39.8 µM [quencher, side channel, single point] |
| COc1ccc2nc(N/C(N)=N/C(=S)Nc3ccc(C)c(C)c3)nc(C)c2c1 | – | inconclusive: 17.8 µM [inhibitor, single point] |
| CCOC(=O)CSc1nnc(CNC(=O)c2ccc(OC)cc2)n1C1CCCCC1 | – | inconclusive: 6.31 µM [fluorescent, side channel, partial curve] |
